Reference: the supplement of paper PMC11417369
± gives the standard deviation of the averaged measurements. Some of the results follow.

The sequences below were run on PfAP2-LT AP2 domain (GST-tagged) (assay: gcPBM binding intensity (ln(normalized median fluorescence intensity)); higher = stronger DNA binding).
In short: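 Binding intensity values are the highest Masliner-normalised natural-log median intensity among replicate spots of either probe orientation. The binding step lasted 1 h in 1× PBS with 1% milk, 0.2 mg/ml BSA, 0.5% salmon testes DNA and 0.03% Triton X-100, using GST-tagged P. falciparum DNA-binding domains expressed in E. coli on an Agilent 4 × 180k array of primer-extended double-stranded 36-bp intergenic genomic probes plus negative controls. Alexa488 anti-GST antibody and a 488 nm scan detected bound protein.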

Row | Sequence | gcPBM binding intensity (ln)
1 | AGAAATAAAAAAAAAAATATATATATTATATATATA [CACACA_negctrl_site1799] | 8.55 ± 0.37
2 | TTATACATATTTATATGTACGTAATATAATATTAAT [XGTACX_site6520] | 8.63 ± 0.38
3 | TTATAATTTTTCTATTGTACATTTAATAATATATAT [XGTACX_site7326] | 8.56 ± 0.47
4 | ATGAAGAAATAAATGTGTACATATCTTAGTATCATA [XGTACX_site8658] | 8.92 ± 0.42
5 | TATTTAATTTATACACGTACATATATAAATAATACA [XGTACX_site1148] | 8.51 ± 0.35
6 | ATTTTTTCTCATAAAAACGTGAACGTTTATTTTACA [CACACA_negctrl_site1041] | 8.67 ± 0.45
7 | TCAACAAAATTGAAGGAACACACATACATATATATA [CACACA_site7940] | 9.01 ± 0.4
8 | TATAAATATCTGTATGCACACATTTTTTTTGGAAAA [CACACA_site4734] | 8.85 ± 0.42
9 | AGCACATAAATAATTAAACACACATTGTTCTAGACA [CACACA_site8746] | 8.97 ± 0.38
10 | ATTATAAAAGAATTTTTTTTTATTTCATTAAAATAT [CACACA_negctrl_site1137] | 8.04 ± 0.46
11 | TTACTATAAAATGTCACACATTCTGTTTCCTTACTT [CACACA_site5714] | 8.86 ± 0.54
12 | GTGTATATATGTTATACACACAAAAATATTTTGTAT [CACACA_site265] | 8.97 ± 0.37
13 | AAAAATCATATAGGTTGTACGGGTAGTTTATTTTAT [XGTACX_site6936] | 8.95 ± 0.41
14 | AAAAAAATAATATAAATAATGAAAAGATATAAATAA [GTGCAC_negctrl_site432] | 8.62 ± 0.57
15 | TACATATATAAATATGTACACACATATGTATGATCT [CACACA_site9284] | 9.12 ± 0.23
16 | AATATAAGCAAATACACACACACATATAAATATGTA [CACACA_site7741] | 9.85 ± 0.35
17 | ATATGAAGTATCGAATTAAGGGCAACAAATAAATTA [CACACA_negctrl_site1116] | 8.76 ± 0.57
18 | TTATTATATAAAGTTTCACACATTATTTGTTCAAAC [CACACA_site5218] | 8.74 ± 0.47
19 | TTATATATGACTAACGGTTTTTTTTTTTTTTTTTTT [CACACA_negctrl_site576] | 8.79 ± 0.28
20 | ATTGAGAGAAAAAAATGTACTTGATCAAAATGGATA [XGTACX_site1649] | 8.73 ± 0.52
21 | TAATATCAATTTTTATGTACTTATATATATATATAT [XGTACX_site5879] | 8.94 ± 0.37
22 | AGTAGTCTGGAGAAGAGTACACAGTATCTGGTAACA [XGTACX_site2032] | 8.71 ± 0.52

Row | Sequence | gcPBM binding intensity (ln)
23 | AATATATATTAAATATGTACTTATTTTTTGGTTGCT [XGTACX_site3613] | 8.76 ± 0.52
24 | AAAGAATAATTAAATACACACATATTACAGTAAAAA [CACACA_site2450] | 9.02 ± 0.41
25 | ACAAAAAAAAAAAAAAAAAAAAAAAAAAAATAATAA [CACACA_negctrl_site1640] | 8.37 ± 0.54
26 | AAAATATATTAAGGCACACACATACATATTTATATA [CACACA_site7707] | 9.29 ± 0.4
27 | AGATCAATAATGACAAGTACACAAAATAACATTTAA [XGTACX_site6968] | 8.99 ± 0.57
28 | ATTTTGTAAAAGGTCATACACACATATTCAAAAGAA [CACACA_site2946] | 8.84 ± 0.35
29 | TGTACACCCAGAAATGCACACACATATATATATATA [CACACA_site8716] | 9.94 ± 0.29
30 | TGTACAGTATATACAACACACATTTGTATAAATATA [CACACA_site1002] | 9.29 ± 0.52
31 | TGCATAATTAAAAATGGTACACTGTATTTATAATAT [XGTACX_site1575] | 8.72 ± 0.42
32 | TATAAATTAAGATAACGTACATATAATAATATAAAC [XGTACX_site487] | 8.95 ± 0.49
33 | AATAGAGTTGAATGCACACATACAAATTTTTAGTTT [CACACA_site3564] | 9.05 ± 0.51
34 | TATATATATTTTATGTGTACTCAATGTTATAACGCA [XGTACX_site8360] | 8.64 ± 0.48
35 | ATAATATATATATATACGCACACTTATGTACGGATT [CACACA_site2120] | 9.1 ± 0.38
36 | AACAATGTTTTCTTGTGTACACATCATTAAAGAAAA [XGTACX_site4726] | 8.6 ± 0.35
37 | TTCTATATAATTCAAACATGCACAGGAAATATTATA [TGCATGCA_site290] | 8.48 ± 0.28
38 | TATGTAACACATACTTGTACATATATAATTTTTTTA [XGTACX_site6251] | 8.54 ± 0.46
39 | AAGAAAAAAGGGGACAAGGCATATCTATATATACAT [TGCATGCA_negctrl_site172] | 8.97 ± 0.58
40 | ATACATATATATATATGTACATATGCACATATATAC [XGTACX_site7209] | 9.02 ± 0.34
41 | TATTGTATGGTAGGATATGATGTTATTTGTTATAAT [CACACA_negctrl_site202] | 8.78 ± 0.33
42 | TCTTTTGCCCAAAAAGGTACACACCACAATTTAAAT [XGTACX_site1482] | 8.71 ± 0.3
43 | ATATATATATCACGCACACACGAATTTTAAATATAT [CACACA_site5691] | 9.43 ± 0.32
44 | TTATTTTTACAATTTTAATAATAATACTAAAACAAA [XGTACX_negctrl_site538] | 7.98 ± 0.42

Row | Sequence | gcPBM binding intensity (ln)
45 | AATATATTATAATATACACACATATATGCTCTTTAA [CACACA_site4131] | 9.02 ± 0.38
46 | ATTTAAAAGAAATAATGTACGAATCATATTTGATAT [XGTACX_site1785] | 8.69 ± 0.49
47 | ATATATTATATATATTTTAAGTAATTTGCAAAAAAT [GTGCAC_negctrl_site361] | 8.36 ± 0.36
48 | ATAAGAAAAGGACACACACACAAAAAAAAAAAAAAA [CACACA_site7351] | 9.48 ± 0.51
49 | TTTATTTATTATTGTTGTACACTTTTTATAAAAAAA [XGTACX_site5114] | 8.57 ± 0.53
50 | ATGTATATAATATTATGTACATATATGAAATATTTT [XGTACX_site8168] | 8.87 ± 0.38
51 | TAGTTTTTTATAAAATTATTTATATAAAGGTAAAAA [CACACA_negctrl_site490] | 8.07 ± 0.47
52 | TATATTTGTAAGAAGAGTACTAAAAAAAGAATAAAG [XGTACX_site8704] | 8.62 ± 0.49
53 | TTCCCTAATATTTGTTGTACTTGTTATATTTTTTTT [XGTACX_site5994] | 8.97 ± 0.57
54 | ATATATATATATATATGTACGTACTCAGTTATGCCT [XGTACX_site453] | 10.2 ± 0.29
55 | ATTTATTAACCATATACACACATATATTTGTATTTA [CACACA_site6744] | 9.06 ± 0.35
56 | ATAGTATCTGGTAGCTGTACGAGTCGTAGAGTGCAG [XGTACX_site2020] | 8.98 ± 0.49
57 | TATTGTATTTAATAAACACACAATATTAAAAATATA [CACACA_site4725] | 8.61 ± 0.42
58 | CATATATACACATACACACACACACGGACACGCACA [CACACA_site6910] | 10.07 ± 0.085
59 | ATACACATATATGTGTGTACTCACCTTTTAATATGA [XGTACX_site4349] | 9.19 ± 0.37
60 | GATTTACAACACGAACGTACAGAACAAAAAGGAAAA [XGTACX_site6501] | 8.88 ± 0.45
61 | GTATCTCATTATTCGTGTACTAAACACATAAAAATA [XGTACX_site2262] | 8.6 ± 0.38
62 | ATCTATATCTATAATACACACTAAAGTAACAGAATA [CACACA_site7370] | 8.8 ± 0.37
63 | TGTTTAAAGGAAAAGGAGTAGTCTATTATATTATCT [CACACA_negctrl_site858] | 8.46 ± 0.4
64 | TATAAAAATAAAAAAAGTACACATAAAAATATATAT [XGTACX_site5189] | 8.86 ± 0.51
65 | AATGTAAAAGTAAACACACACATATATATATACATA [CACACA_site2484] | 9.49 ± 0.38
66 | AACATTTATAAATATTGTACATATAGATTTATATAT [XGTACX_site2662] | 8.72 ± 0.47

Row | Sequence | gcPBM binding intensity (ln)
67 | AACAATATATTGAATAGTACATATATATAAACATAT [XGTACX_site2811] | 8.94 ± 0.44
68 | AAAATAAAATAACGTTGTACAACATCATTTCTATAT [XGTACX_site5080] | 8.71 ± 0.4
69 | TCTTTCTTATATTTATATAATTATATTTATTTTATA [GTGCAC_negctrl_site300] | 8.79 ± 0.53
70 | TTTAATTTGTTATACACACACAAAAAAAGTTATAAA [CACACA_site7779] | 8.97 ± 0.47
71 | GGAATACAGGAAAAAAGTACAGAAAATGGAATATTA [XGTACX_site5053] | 8.88 ± 0.57
72 | ATATAATGTTATAGAAGTACATGAAATACTTATTTA [XGTACX_site8850] | 8.65 ± 0.5
73 | CATATAAAAAGACACACACACACATATATATATATA [CACACA_site940] | 9.92 ± 0.31
74 | TTTTTTTTTCCCGTAAATATTGAGACAACCATAATG [CACACA_negctrl_site41] | 8.4 ± 0.4
75 | TTAAAAATATATATAACACACACATAATATATATAT [CACACA_site8811] | 9.32 ± 0.16
76 | TATTTTTATTTAGGACGTACAAAAATAAATCATATT [XGTACX_site1448] | 8.51 ± 0.44
77 | TATAAATATTACGGTAGTACTATACATATATATAAT [XGTACX_site7442] | 8.86 ± 0.36
78 | TCCTTATATTTGCACACACACACAAGAAAATGAAAA [CACACA_site6613] | 9.71 ± 0.28
79 | TTAGAAACATTGAAAGCATGCAATATTACTTTATAC [TGCATGCA_site522] | 8.82 ± 0.28
80 | TATATAATATAATTGACATGCAACCATTTTCGTGAA [TGCATGCA_site458] | 8.66 ± 0.4
81 | TCATTCATATGTTACACACACACACGCACATAAAAA [CACACA_site7514] | 9.78 ± 0.22
82 | AAGTTGGAAAGGTTATGTACTTATTTTTTAAAATAA [XGTACX_site204] | 8.34 ± 0.44
83 | TAACCATACATACATACACACACACCCACATATATA [CACACA_site8951] | 9.95 ± 0.13
84 | ATAAAAAACTCAGAGCGTACATAATTTTTTCTATTT [XGTACX_site2803] | 8.66 ± 0.47
85 | TATATATTCAAATGTGCATGTAAAAAAAAAAAAAAG [TGCATGCA_site126] | 8.67 ± 0.55
86 | CAGGAGAGTAAAAGAGTGCGAATTATTATTTTGGAG | 8.77 ± 0.51
87 | AGACATTAATGAAGGTGTACATATATTTGACAGAAT [XGTACX_site655] | 9.13 ± 0.41
88 | TCCCTAGTATACCTTAGTACATATATTATTTTGCAC [XGTACX_site2174] | 9.09 ± 0.37
